{"source": "PubChem BioAssay AID1645887", "about": "(National Center for Advancing Translational Sciences (NCATS), 2021)", "note": "“And” between values parts separate entries of the source, which are not always exact repeats. Equal values may be shown once. Out of some 16,000 compounds screened, about 40 (0.2%) were called active. About 1% were inconclusive and are not listed. The call rests on the fitted dose curve; in most records, active means well fitted activation curve with a large enough effect; inconclusive means small, poorly fitted or top-dose-only effect, or another doubt; inactive means no such curve, though single readings can be large or run the other way. This is one part of the list. Residues, ends and D or L forms follow the SMILES beside them. *: point of attachment. CH2Cl = ClC*"}
{"biological_target": "Rap guanine nucleotide exchange factor 4 (Homo sapiens) (UniProt Q8WZA2)", "sequence (Q8WZA2 whole entry, looked up)": "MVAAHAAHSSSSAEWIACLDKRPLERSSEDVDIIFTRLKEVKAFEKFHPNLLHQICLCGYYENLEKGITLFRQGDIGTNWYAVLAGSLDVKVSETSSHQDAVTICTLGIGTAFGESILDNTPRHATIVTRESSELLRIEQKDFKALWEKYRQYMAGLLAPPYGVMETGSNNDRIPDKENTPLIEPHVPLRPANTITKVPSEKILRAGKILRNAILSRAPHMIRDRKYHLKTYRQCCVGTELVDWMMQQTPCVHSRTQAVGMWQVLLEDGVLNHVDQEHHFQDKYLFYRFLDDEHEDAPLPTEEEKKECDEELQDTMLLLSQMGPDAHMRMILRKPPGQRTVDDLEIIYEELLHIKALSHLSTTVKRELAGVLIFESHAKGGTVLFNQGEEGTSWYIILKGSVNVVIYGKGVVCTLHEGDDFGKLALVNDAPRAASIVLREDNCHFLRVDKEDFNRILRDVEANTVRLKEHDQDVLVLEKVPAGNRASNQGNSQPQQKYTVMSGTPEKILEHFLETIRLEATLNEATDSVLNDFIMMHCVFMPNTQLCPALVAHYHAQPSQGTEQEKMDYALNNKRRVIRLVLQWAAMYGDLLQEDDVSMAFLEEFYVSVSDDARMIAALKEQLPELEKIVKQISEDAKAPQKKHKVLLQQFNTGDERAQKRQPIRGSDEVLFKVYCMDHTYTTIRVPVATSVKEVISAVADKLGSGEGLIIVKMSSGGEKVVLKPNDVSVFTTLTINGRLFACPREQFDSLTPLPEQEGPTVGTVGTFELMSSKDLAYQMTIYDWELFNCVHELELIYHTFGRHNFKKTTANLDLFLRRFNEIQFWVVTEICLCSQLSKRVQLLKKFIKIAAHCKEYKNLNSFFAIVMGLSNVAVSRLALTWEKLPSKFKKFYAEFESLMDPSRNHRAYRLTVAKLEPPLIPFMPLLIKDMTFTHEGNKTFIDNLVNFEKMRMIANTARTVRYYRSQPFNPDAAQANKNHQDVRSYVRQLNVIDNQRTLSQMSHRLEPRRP", "assay": "Validation qHTS for agonist of cAMP-regulated guanine nucleotide exchange factor 4 (EPAC2);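 further: exchange makes BODIPY-GDP fluorescence drop when released from Rap1B; series mostly up to about 150 µM; on the % scale 0 is the no-effect control and ±100 the full control effect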", "conditions": "EPAC2 Rap1B BODIPY-GDP exchange, fluorescence; activation: stronger effect = higher value", "procedure,_shortened": "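Fluorescent exchange assay: 100 nM EPAC2 with 250 nM RAP1B-BODIPY-GDP and 50 uM GDP; compound added, 5 min at room temperature, then read (ex 480/em 540 nm) every 5 min for 30 min. Normalized to 6.5 mM cAMP agonist control.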"}
{"molecule": "c1cncc([C@@H]2CCCCN2)c1", "activation": "inactive: -12.5%"}
{"molecule": "CN1[C@@H]2CC[C@H]1CC(OC(=O)c1cc(Cl)cc(Cl)c1)C2", "note": "(stereo partly drawn)", "activation": "inactive: -10.7% and inactive: 0.252%"}
{"molecule": "CC(C)(O)[C@@H]1[C@H]2OC(=O)[C@@H]1[C@]1(O)C[C@H]3O[C@]34C(=O)O[C@H]2[C@]14C", "activation": "inactive: -19.2% and inactive: -14.1%"}
{"molecule": "C[C@H](N)C(=O)N[C@@H](C)C(=O)N[C@@H](Cc1ccccc1)C(=O)CCl", "note": "(H-Ala-Ala-Phe-CH2Cl)", "activation": "inactive: -2.76%"}
{"molecule": "C[C@]12CC[C@H](O)C[C@H]1CC[C@@H]1[C@@H]2CC[C@]2(C)[C@@H](c3ccc(=O)oc3)C[C@H]3O[C@]132", "activation": "inactive: -22.3%"}
{"molecule": "COc1cc2c(c(OC)c1OC)-c1ccc(O)c(=O)cc1C(NC(C)=O)CC2", "note": "(stereo not drawn)", "activation": "inactive: -21.4%"}
{"molecule": "Clc1ccc(Cl)cc1", "activation": "inactive: -22.1%"}
{"molecule": "COC[C@H]1OC(=O)c2coc3c2[C@@]1(C)C1=C(C3=O)C2CCC(=O)[C@@]2(C)C[C@H]1OC(C)=O", "note": "(stereo partly drawn)", "activation": "inactive: 7.17% and inactive: -14.8%"}
{"molecule": "CN(C(=O)Cc1ccc(Cl)c(Cl)c1)[C@H](CN1CCCC1)c1cccc(N=C=S)c1", "activation": "inactive: 0.96%"}
{"molecule": "O=C(O)CF", "activation": "inactive: -11.3%"}
{"molecule": "Cc1ccc2c(c1)[C@]13CCCC[C@@H]1[C@H](C2)N(C)CC3", "activation": "inactive: -9.05%"}
{"molecule": "C=CCN1CCC23c4c5ccc(O)c4OC2/C(=N/N=C2\\CCC4(O)C6Cc7ccc(O)c8c7C4(CCN6CC=C)C2O8)CCC3(O)C1C5", "note": "(stereo not drawn)", "activation": "inactive: 9.31%"}
{"molecule": "C[C@@H]1O[C@H](C[N+](C)(C)C)CS1", "activation": "inactive: -50.9%"}
{"molecule": "CCOP(=O)(OCC)O/C(=C/Cl)c1ccc(Cl)cc1Cl", "activation": "inactive: 14.2%"}
{"molecule": "O=[N+]([O-])O[C@H]1CO[C@H]2[C@@H]1OC[C@H]2O[N+](=O)[O-]", "activation": "inactive: 2.32%"}
{"molecule": "C[C@]12Cc3nonc3C[C@@H]1CC[C@@H]1[C@@H]2CC[C@@]2(C)[C@H]1CC[C@]2(C)O", "activation": "inactive: -2.22%"}
{"molecule": "C=C1CC[C@@]2(O)[C@H]3Cc4ccc(O)c5c4[C@@]2(CCN3CC2CC2)[C@H]1O5", "activation": "inactive: -1.7%"}
{"molecule": "Fc1ccc(C(OCCN2CCN(C/C=C/c3ccccc3)CC2)c2ccc(F)cc2)cc1", "activation": "inactive: 17%"}
{"molecule": "CC(C)Oc1cccnc1N(C)C1CCN(Cc2ccccc2)CC1", "activation": "inactive: -41.7%"}
{"molecule": "NCC1(CC(=O)O)CCCCC1", "activation": "inactive: -0.997% and inactive: -16.2% and inactive: -14.8%"}
{"molecule": "COc1cc2ccc(=O)oc2c2ccoc12", "activation": "inactive: -9.02%"}
{"molecule": "C[C@]12CC[C@H]3[C@@H](CCC4=CC(=O)CC[C@@]43C)[C@@H]1CC[C@@H]2OC(=O)CCc1ccccc1", "activation": "inactive: 8.71%"}
{"molecule": "COC1CC(OC2CC[C@@]3(C=O)C4CC[C@]5(C)C(C6=CC(=O)OC6)CC[C@@]5(O)C4CC[C@]3(O)C2)OC(C)C1O", "note": "(stereo partly drawn)", "activation": "inactive: -5.3%"}
{"molecule": "CCC(=O)Nc1ccc(Cl)c(Cl)c1", "activation": "inactive: -4.73%"}
{"molecule": "CCC(=O)C(CC(C)N(C)C)(c1ccccc1)c1ccccc1", "note": "(stereo not drawn)", "activation": "inactive: -30.5%"}
{"molecule": "C=CCc1ccc(OC)cc1", "activation": "inactive: -9.36%"}
{"molecule": "CCOC(=O)[C@]12Cc3ccccc3[C@H]1N(Cc1ccccc1)C(=O)c1ccccc12", "activation": "inactive: -8.64%"}
{"molecule": "COc1ccc(OC)c([C@@H](O)[C@H](C)N)c1", "activation": "inactive: -14.4%"}
{"molecule": "Cc1ccccc1-c1cncnc1NCCc1cnc[nH]1", "activation": "inactive: -5.07%"}
{"molecule": "O=C(Nc1ccccc1)N1CC[C@@]2(CCCNC2)C1", "activation": "inactive: 1.31%"}
{"molecule": "C=CCN1CC[C@]23c4c5ccc(O)c4O[C@@H]2/C(=N/N=C2\\CC[C@@]4(O)C6Cc7ccc(O)c8c7[C@@]4(CCN6CC=C)[C@@H]2O8)CC[C@@]3(O)C1C5", "activation": "inactive: -12%"}
{"molecule": "CC(O)(CS(=O)(=O)c1ccc(F)cc1)C(=O)Nc1ccc(C#N)c(C(F)(F)F)c1", "note": "(stereo not drawn)", "activation": "inactive: -37.4%"}
{"molecule": "CC1O[C@@H](O[C@@H]2C(O)C[C@H](O[C@@H]3C(O)C[C@@H](OC4CC[C@@]5(C)C6CC[C@]7(C)C(C8=CC(=O)OC8)CC[C@@]7(O)C6CC[C@@H]5C4)OC3C)OC2C)CC(O)[C@H]1O", "note": "(stereo partly drawn)", "activation": "inactive: -1.3%"}
{"molecule": "CCCn1c(=O)c2[nH]c(C3CCCC3)nc2n(CCCOC(=O)c2ccc(S(=O)(=O)F)cc2)c1=O", "activation": "inactive: -27.3%"}
{"molecule": "CN1C2CCC1CC(OC(c1ccccc1)c1ccc(Cl)cc1)C2", "note": "(stereo not drawn)", "activation": "inactive: -13.7%"}
{"molecule": "CC1CC[C@@]2(OC1)O[C@@H]1[C@@H](O)[C@H]3C4CC[C@H]5C[C@@H](O[C@@H]6O[C@H](CO)[C@H](O[C@@H]7O[C@H](CO)[C@@H](O)[C@H](O[C@@H]8OC[C@@H](O)[C@H](O)[C@H]8O)[C@H]7O[C@@H]7O[C@H](CO)[C@@H](O)[C@H](O[C@@H]8O[C@H](CO)[C@@H](O)[C@H](O)[C@H]8O)[C@H]7O)[C@H](O)[C@H]6O)[C@H](O)C[C@]5(C)C4CC[C@]3(C)[C@H]1[C@@H]2C", "note": "(stereo partly drawn)", "activation": "inactive: -12.9%"}
{"molecule": "CNC(=O)Oc1cccc2ccccc12", "activation": "inactive: -27.6%"}
{"molecule": "CCOC(=O)c1cncn1[C@H](C)c1ccccc1", "activation": "inactive: -1.12%"}
